A lower IC50 marks a more sensitive line; fits outside the tested doses are given as limits. The AUC spans the tested range (256-fold, ending at the top dose) of the same fit; values near 1 show little effect. For part of these data: An inferred top dose was calculated from the reported fits.
Assays:
Assay in all cases: Viability of human cancer cell lines after 72 h of drug (GDSC screen)
XMD15-27 = compound: C=CC(=O)Nc1ccc(C(=O)c2sc(Nc3ccc(N4CCN(C)CC4)cc3OC)nc2N)cc1 [XMD15-27]; conditions: top dose 10.24 µM; top dose inferred
Method: (§1)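 Human cancer cell lines in 384-well plates, medium with 10% serum, drug for 72 h over a 256-fold dose range (nine 2-fold or five 4-fold steps up to the top dose). Adherent lines were fixed and stained with the nucleic acid dye Syto60, suspension lines read with resazurin; signal relative to control wells, capped at 0 and 100%. One two-parameter sigmoid per drug and line, fitted in a mixed model over all curves with the slope shared within a line.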

SL 0101-1 = compound: CC(=O)O[C@@H]1[C@@H](OC(C)=O)[C@@H](O)[C@H](Oc2c(-c3ccc(O)cc3)oc3cc(O)cc(O)c3c2=O)O[C@H]1C [SL 0101-1]; conditions: top dose 10 µM; top dose inferred
Method: as §1

Temsirolimus = compound: CO[C@H]1C[C@@H]2CC[C@@H](C)[C@@](O)(O2)C(=O)C(=O)N2CCCC[C@H]2C(=O)O[C@H]([C@H](C)C[C@@H]2CC[C@@H](OC(=O)C(C)(CO)CO)[C@H](OC)C2)CC(=O)[C@H](C)/C=C(\C)[C@@H](O)[C@@H](OC)C(=O)[C@H](C)C[C@H](C)/C=C/C=C/C=C/1C [Temsirolimus]; conditions: top dose 0.2 µM
Method: as §1

NB17 (neuroblastoma, adherent)
AUC (XMD15-27): 0.981
IC50 (XMD15-27): > 10.2 µM
AUC (SL 0101-1): 0.978
IC50 (SL 0101-1): > 10 µM
AUC (Temsirolimus): 0.975
IC50 (Temsirolimus): > 0.2 µM

KMH-2 (thyroid, adherent)
AUC (XMD15-27): 0.978
IC50 (XMD15-27): > 10.2 µM
AUC (SL 0101-1): 0.99
IC50 (SL 0101-1): > 10 µM
AUC (Temsirolimus): 0.778
IC50 (Temsirolimus): 0.0723 µM

HCC2157 (breast, suspension)
AUC (XMD15-27): 0.987
IC50 (XMD15-27): > 10.2 µM
AUC (SL 0101-1): 0.981
IC50 (SL 0101-1): > 10 µM
AUC (Temsirolimus): 0.836
IC50 (Temsirolimus): 0.142 µM

MY-M12 (leukaemia, suspension)
AUC (XMD15-27): 0.971
IC50 (XMD15-27): > 10.2 µM
AUC (SL 0101-1): 0.981
IC50 (SL 0101-1): > 10 µM
AUC (Temsirolimus): 0.486
IC50 (Temsirolimus): 0.0114 µM

IST-MEL1 (melanoma, adherent)
AUC (XMD15-27): 0.975
IC50 (XMD15-27): > 10.2 µM
AUC (SL 0101-1): 0.97
IC50 (SL 0101-1): > 10 µM
AUC (Temsirolimus): 0.709
IC50 (Temsirolimus): 0.055 µM

ALL-PO (lymphoblastic leukaemia, suspension)
AUC (XMD15-27): 0.912
IC50 (XMD15-27): > 10.2 µM
AUC (SL 0101-1): 0.869
IC50 (SL 0101-1): > 10 µM
AUC (Temsirolimus): 0.896
IC50 (Temsirolimus): > 0.2 µM

451Lu (melanoma, adherent)
AUC (XMD15-27): 0.988
IC50 (XMD15-27): > 10.2 µM
AUC (SL 0101-1): 0.977
IC50 (SL 0101-1): > 10 µM
AUC (Temsirolimus): 0.597
IC50 (Temsirolimus): 0.0228 µM

KGN (ovary, adherent)
AUC (XMD15-27): 0.962
IC50 (XMD15-27): > 10.2 µM
AUC (SL 0101-1): 0.961
IC50 (SL 0101-1): > 10 µM
AUC (Temsirolimus): 0.807
IC50 (Temsirolimus): 0.13 µM

HCC1428 (breast, adherent)
AUC (XMD15-27): 0.986
IC50 (XMD15-27): > 10.2 µM
AUC (SL 0101-1): 0.983
IC50 (SL 0101-1): > 10 µM
AUC (Temsirolimus): 0.931
IC50 (Temsirolimus): > 0.2 µM

PCI-6A (head and neck, adherent)
AUC (XMD15-27): 0.976
IC50 (XMD15-27): > 10.2 µM
AUC (SL 0101-1): 0.982
IC50 (SL 0101-1): > 10 µM
AUC (Temsirolimus): 0.911
IC50 (Temsirolimus): > 0.2 µM

LU-139 (small cell lung carcinoma, suspension)
AUC (XMD15-27): 0.982
IC50 (XMD15-27): > 10.2 µM
AUC (SL 0101-1): 0.869
IC50 (SL 0101-1): > 10 µM
AUC (Temsirolimus): 0.654
IC50 (Temsirolimus): 0.0379 µM

MC116 (B-cell lymphoma, suspension)
AUC (XMD15-27): 0.999
IC50 (XMD15-27): > 10.2 µM
AUC (SL 0101-1): 0.999
IC50 (SL 0101-1): > 10 µM
AUC (Temsirolimus): 0.999
IC50 (Temsirolimus): > 0.2 µM

DAN-G (pancreas, adherent)
AUC (XMD15-27): 0.992
IC50 (XMD15-27): > 10.2 µM
AUC (SL 0101-1): 0.987
IC50 (SL 0101-1): > 10 µM
AUC (Temsirolimus): 0.922
IC50 (Temsirolimus): > 0.2 µM

OACM5-1 (oesophagus, semi-adherent)
AUC (XMD15-27): 0.883
IC50 (XMD15-27): > 10.2 µM
AUC (SL 0101-1): 0.971
IC50 (SL 0101-1): > 10 µM
AUC (Temsirolimus): 0.959
IC50 (Temsirolimus): > 0.2 µM

L-363 (myeloma, suspension)
AUC (XMD15-27): 0.969
IC50 (XMD15-27): > 10.2 µM
AUC (SL 0101-1): 0.977
IC50 (SL 0101-1): > 10 µM
AUC (Temsirolimus): 0.159
IC50 (Temsirolimus): 0.00138 µM

CP50-MEL-B (melanoma, adherent)
AUC (XMD15-27): 0.988
IC50 (XMD15-27): > 10.2 µM
AUC (SL 0101-1): 0.972
IC50 (SL 0101-1): > 10 µM
AUC (Temsirolimus): 0.915
IC50 (Temsirolimus): > 0.2 µM

NCI-H1876 (small cell lung carcinoma, adherent)
AUC (XMD15-27): 0.987
IC50 (XMD15-27): > 10.2 µM
AUC (SL 0101-1): 0.987
IC50 (SL 0101-1): > 10 µM
AUC (Temsirolimus): 0.937
IC50 (Temsirolimus): > 0.2 µM

SF539 (glioma, adherent)
AUC (XMD15-27): 0.978
IC50 (XMD15-27): > 10.2 µM
AUC (SL 0101-1): 0.986
IC50 (SL 0101-1): > 10 µM
AUC (Temsirolimus): 0.765
IC50 (Temsirolimus): 0.0662 µM

OCI-M1 (acute myeloid leukaemia, suspension)
AUC (XMD15-27): 0.994
IC50 (XMD15-27): > 10.2 µM
AUC (SL 0101-1): 0.994
IC50 (SL 0101-1): > 10 µM
AUC (Temsirolimus): 0.988
IC50 (Temsirolimus): > 0.2 µM

Source: the supplement of paper PMC4967469
